Test results taken from ChEMBL document CHEMBL4888484, “Replenishing the malaria drug discovery pipeline: Screening and hit evaluation of the MMV Hit Generation Library 1 (HGL1) against asexual blood stage Plasmodium falciparum ,using a nano luciferase reporter read-out” (2022).
Out of some 150,000 compounds screened, about 540 (0.36%) showed an effect of 50% or more. This is one part of the list.

system: Plasmodium falciparum; assay: Primary screen in NF54 nanoGlo assay, in single point, at 2uM, 72h; a lower Z score goes with more inhibition; type: functional, Erythrocyte; conditions: timepoint 72 hour

SMILES	% Inhibition [%]	Z score
CC1(C)NC(=O)N(CC(=O)N2CCC[C@H]2c2ccc3c(c2)OCCCO3)C1=O	-13	1.7
C[C@@H](CC1CN(C(=O)OC(C)(C)C)C1)NC(=O)c1ncccc1F	-10	1.31
CC(Cc1ccccc1Cl)C(=O)NCC1CCC2(CCOCC2)C1O (stereo unspecified)	2	-0.26
OCc1ccc2c(c1)CN(c1ncnc3[nH]cnc13)CCO2	-6	0.58
O=C(Cn1c(=O)c2nncn2c2ccccc21)Nc1ccccc1F	-5	0.52
Cc1csc(NC(=O)Nc2cccs2)n1	7	-0.94
c1ccc(CNc2ccc3nnnn3n2)nc1	-15	2.07
CC[C@@H](CCO)NCc1ccc(Cl)cc1F	-15	1.9
CC1(C)OCC2CC21NC(=O)Nc1ccc(F)c(C2CC2)c1 (stereo unspecified)	-5	0.47
CCS(=O)(=O)N1CCN(c2nc3ccccc3c3nnc(-c4ccccc4C)n23)CC1	-2	0.25
C[C@@H](C(=O)N1CCC(Cc2ncc[nH]2)CC1)N(C)CC(F)(F)F	-10	1.38
Cc1cc(N2CCN(C)[C@]3(CCC(=O)N(C)CC3)C2)nc(-c2ccccc2)n1	1	-0.1
CCOC(=O)CNC(=O)[C@H]1CC(=O)N(CCc2c[nH]c3ccc(F)cc23)C1	-7	1.37
O=C(COc1ccc(Cl)cc1Br)NC(=O)NC1CCCC1	7	-1.14
C[C@H]1CN(Cc2nc(-c3cccs3)no2)CC(C)(C)O1	4	-0.78
Cc1nc2oc(-c3ccccc3)nc2cc1N	-15	1.7
O=C1c2ccccc2-c2nc(-c3ccccc3)cc3cccc1c23	-12	1.38
CC(C)c1nc(C(=O)NCCn2ncnn2)cs1	-2	0.33
Cc1ccc(N2CCN(c3nc4c(c(N5CCOCC5)n3)CN(S(=O)(=O)c3ccccc3)CC4)CC2)cc1C	-1	0.17
CCOc1ccccc1CCN=C(N(C)C)N(C)C	-1	0.1
O=C(NCc1c[nH]c2ccccc12)C1CCCC1	0	-0.05

SMILES	% Inhibition [%]	Z score
Cn1cc(CNCc2ccc(N3CCCC3=O)cc2)cn1	-9	0.97
COC(=O)CN1CCN(C(=O)c2cnc3ccccc3n2)CC1=O	-6	0.59
c1cncc(-c2nnc3n2CCCC[C@H]3C2CCOCC2)c1	-8	1.6
CCCN1C(=O)c2c(C(=O)NCCc3ccc(OC)c(OC)c3)ncn2C[C@@]1(C)C(=O)NC1CCCC1	-17	3.2
Cc1ccc(Oc2c(CN(Cc3ccco3)C[C@H](O)COC(C)C)c(-c3ccccc3)nn2C)cc1	10	-1.3
C[C@@H](c1cnn(C)c1)n1ccnc1-c1ccccc1-c1ccco1	-7	1.01
O=C(Nc1ccc(Oc2cccc3cccnc23)cc1)c1ccc(O)nc1	-3	0.42
CC1=C(C(=O)Nc2ccccc2)[C@H](c2ccc(C)cc2)NC(Nc2nc3ccccc3o2)=N1	-8	1.11
Cc1nn(C[C@@H](O)COCc2ccccc2)cc1Br	34	-3.87
O=C1N[C@H](C(=O)N2CCc3c(CN4CCCC4)cccc32)CO1	-5	0.66
CCNC(=O)[C@@H]1CCCN1C(=O)Nc1cccnc1Oc1ccc(F)cc1	-3	0.58
CCN(CC)c1ccc(C(=O)N[C@@H](C)c2ccc(F)cc2F)cn1	-14	2.37
CC(=O)c1ccc(O[C@H]2CCN(C3CC3)C2=O)cc1	-14	1.44
C[C@H]1CN(c2nnc(-c3ccccc3)c(=O)[nH]2)CCO1	8	-1.02
CN(Cc1ccc2cc(O)ccc2c1)C[C@H]1CCCCO1	8	-0.87
CCN(CC)c1ccc(C(=O)C(F)(F)F)c(O)c1	32	-4.18
O=C1CC(C(=O)N2CC3CCC2C3)CN1c1nccs1 (stereo unspecified)	30	-3.4
Cc1cc(N2CCN(c3ncnc4[nH]ncc34)CC2)nc(C(C)C)n1	-7	1.24
O=C(CN1CCCC1C(=O)O)NC(c1ccc(F)cc1)C1CCCC1 (stereo unspecified)	-8	1.15
CC(C)c1nccc(C(=O)N[C@H]2CN(S(C)(=O)=O)C[C@@H]2C2CC2)n1	2	-0.36
COc1cccc(NC(=O)C2[C@H]3C=C[C@@]4(O3)C(C(=O)NC3CCCCC3C)N(Cc3ccccc3F)C(=O)[C@@H]24)c1 (stereo partly specified)	5	-0.82

SMILES	% Inhibition [%]	Z score
CCc1ccc(CN2CCC[C@H](CNC(=O)c3ccc[nH]3)C2)nc1	-4	0.44
CCn1ncc(NC(=O)Cn2ccc(C(=O)OC)n2)n1	-6	1.26
Cc1ccc(F)cc1NC(=O)c1nn(-c2ccc(F)cc2)c2ccccc2c1=O	5	-0.68
CCN(CC)C(=O)COc1cccc(Br)c1	-10	1.27
O=S(=O)(c1ccc(OCC(O)CN2CCCC2)cc1)c1ccc(OCC(O)CN2CCCC2)cc1 (stereo unspecified)	7	-0.6
Cn1cnc(CNC(=O)c2cc(Cl)cc(F)c2N)n1	-4	0.32
O=C(OCCc1cnccn1)c1ccc(N2CCCC2)nc1	-3	0.38
CCN(C(=O)[C@@H]1CCC(=O)N1S(=O)(=O)c1ccccc1)c1ccc(OC)cc1	-19	2.64
CC(=O)NC(C)(C)C[C@H](C)NCc1cnc(C)c(C)c1	-11	1.19
CCOc1ccccc1CN1CC[C@H](c2nc(C)n[nH]2)[C@H](NC(=O)C2CCOCC2)C1	-6	0.83
Cc1ccc(-c2nc(-c3ccc(S(=O)(=O)N4CCCCC4)cc3)no2)cc1C	-2	0.39
COc1nc(NCC2CCC(O)C2)nc(N2CCCCCC2)n1 (stereo unspecified)	-9	1.4
CC(C)[C@H](CNC(=O)N1CCC(OCc2cccnc2)CC1)N1CCCC1	-5	0.8
COC[C@H](Nc1cc(C(C)C)nc(C)n1)c1ccccn1	-13	1.59
O=C(NC1C2C3CCC(C3)C12)N1CCN(C(=O)c2ccccc2)CC1 (stereo unspecified)	-5	0.63
O=C(NC[C@]1(O)CCCc2occc21)c1cccc(F)c1	19	-2.42
COc1cc(-c2noc(C(C)(C)C)n2)ccc1OCc1ccccc1F	-8	1.3
CCc1nc(C)sc1CN1CCC[C@H](C(=O)Cc2ccccc2)C1	-10	1.51
CC(C)(C)OC(=O)NC1CCCC(C(=O)N2CCC3(CCC3)C2)C1 (stereo unspecified)	10	-1.6
CCN(Cc1cc(C)on1)C1CCCC1	5	-0.84
Cc1ccc(-c2ccnc(-n3ncc(C(=O)NCCN4CCOCC4)c3C3CC3)n2)o1	-15	2.06

SMILES	% Inhibition [%]	Z score
Cc1noc(C)c1N(C)S(=O)(=O)c1ccc(F)c2ncccc12	-5	1.14
C=CCOCC(O)CN(Cc1c(-c2ccccc2)noc1N1CCCCC1C)CC1CCCO1 (stereo unspecified)	30	-0.88
CC(C)CN1CC(=O)N(Cc2cc[nH]n2)C1=O	-2	0.19
O=C(OCc1ccccc1)N1CCC[C@@](O)(CN2CCOCC2)C1	-4	0.45
CC1CN(C(=O)c2cn(C3CCS(=O)(=O)C3)nc2C(C)C)CC(C)N1 (stereo unspecified)	3	-0.46
O=C(NCCCc1nccs1)[C@H]1CC12CCCCC2	9	-1.65
COCCOc1cc2cc(c1)C(=O)NCCNC(=O)N[C@H]1CCN(Cc3nc(C(C)C)cs3)C[C@@H]1OCc1cccc(c1)O2	17	-3.22
Cc1ccc(-c2nc(CC(=O)NC[C@H](C)CN3CCCC3)cs2)o1	-15	2.13
Cc1ccccc1OCC(=O)N(CCn1ccc(C(F)(F)F)n1)C1CCCC1	-6	1.21
Cc1c(C(=O)N2CC(C)CC(C)C2)c(C(F)(F)F)nn1C1CCN(C)CC1 (stereo unspecified)	-10	1.27
CC(C)CC(C)OC(=O)CC(C)NC(=O)C1CCCC1 (stereo unspecified)	-14	1.38
CCn1cc(C#N)c(=O)n(CC(=O)N(Cc2ccccc2)[C@@H](C)C2CC2)c1=O	-1	0.24
O=C(c1nnn2c1CO[C@H](c1ccccc1)C2)N1CCN(c2ccccn2)CC1	-11	1.54
Cc1nn(C)c2c(=O)n(CC(=O)NCc3ccccc3C(F)(F)F)ccc12	-20	1.94
COc1ccc2cc1Oc1cccc(c1)CO[C@H]1CCN(C(=O)CN3CCN(C)C3=O)C[C@H]1NC(=O)CC2	-12	2.21
COC(=O)c1cnc2nc(-c3ccccc3)nn2c1-c1cnc(N2CCCCC2)nc1C	6	-0.78
Cn1ccnc1-c1nccn1CCCc1cccnc1	-6	0.8
Cc1noc(C)c1CNC(=O)c1[nH]nc2c1CCC2	-9	0.96
C[C@@H]1CN(C[C@@H]2CN(c3ncnc4[nH]ccc34)C[C@@H]2CO)C[C@H](C)O1	-3	0.45
Cc1cnn(CCC(=O)N(C)Cc2c[nH]nc2C)c1	-11	1.64
